# Several values for one entry are separate records, joined by “and”; a condition that tells them apart may be missing. Identical values can stand only once. Hit rate of the full screen: of about 220,000 compounds, about 16,000 (7.3%) were called active. The shares of active, inactive and inconclusive entries below differ from those in the screen. Calls come from the whole dose curve; as a rule, active = well fitted inhibition curve with a large enough effect (not every such curve was filed as active); inconclusive = small, poorly fitted or top-dose-only effect, or another doubt; inactive = no such curve, though single readings can be large or run the other way. A potency beside an inconclusive call is a rough fit, not a confirmed value.
# Biological target: Aldehyde dehydrogenase 1A1 (Homo sapiens) (UniProt P00352)
# Sequence of UniProt P00352 (P00352 whole entry, looked up): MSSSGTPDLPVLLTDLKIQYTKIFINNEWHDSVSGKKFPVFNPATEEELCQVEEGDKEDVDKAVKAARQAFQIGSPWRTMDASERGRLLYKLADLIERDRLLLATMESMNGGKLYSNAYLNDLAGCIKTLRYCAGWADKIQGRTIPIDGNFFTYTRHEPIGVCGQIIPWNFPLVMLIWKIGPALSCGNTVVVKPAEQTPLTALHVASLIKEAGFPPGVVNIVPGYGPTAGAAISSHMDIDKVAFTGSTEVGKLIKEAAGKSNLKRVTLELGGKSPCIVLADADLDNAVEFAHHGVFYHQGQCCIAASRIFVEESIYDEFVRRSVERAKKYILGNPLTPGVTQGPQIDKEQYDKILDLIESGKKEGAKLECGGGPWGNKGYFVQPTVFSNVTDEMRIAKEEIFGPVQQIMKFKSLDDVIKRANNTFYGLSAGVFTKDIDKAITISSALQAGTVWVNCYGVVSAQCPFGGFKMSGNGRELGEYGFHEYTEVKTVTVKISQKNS
# Test: qHTS Assay for Inhibitors of Aldehyde Dehydrogenase 1 (ALDH1A1);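 for activity, negative = inhibition: plate controls were no enzyme wells and a reference inhibitor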
# Conditions: Purified ALDH1A1, NADH fluorescence, propionaldehyde substrate; series mostly up to 75.3 µM
# Potency is the fitted concentration of half-maximal effect; tags give direction and shape of the fitted curve.
SMILES,Potency,"activity, negative = inhibition"
O=C(CCC1CCCN(C(=O)c2cc(C3CC3)[nH]n2)C1)N1CCN(c2ccccn2)CC1 (centres undefined),"inconclusive: 12.6 µM [inhibitor, partial curve]",–
CCOc1cc(-c2noc(N)c2C#N)cc(OCC)c1OCC,inactive,–
COC(=O)C1=CN(Cc2ccc(OC)c(OC)c2)C=C(C(=O)OC)C1c1cccs1,"inconclusive: 28.2 µM [inhibitor, partial curve]",–
CCN(CCCNC(=O)CCNC(=O)Cn1cnc2ccccc2c1=O)c1ccccc1,"inconclusive: 35.5 µM [inhibitor, single point]",–
O=C(c1ccc(N2CCOCC2)nc1)N1CCCCC1,"inconclusive: 39.8 µM [inhibitor, single point]",–
COc1ccc(-c2cc(=O)[nH]c(NCc3ccccc3)n2)cc1,"inconclusive: 22.4 µM [inhibitor, single point]",–
COCc1cc(O)c(O)c(O)c1-c1c(COC)cc(O)c(O)c1O,"inconclusive: 25.1 µM [inhibitor, single point]",–
O=C(CNc1ccc(Br)cc1)NNC1=NCCC1,inactive,–
COc1cccc(C(=O)NCc2ccc3[nH]c(C)cc3c2)c1,active: 28.2 µM,–
CCc1nnc(NC(=O)CSc2nnnn2-c2cccc(C(=O)OC)c2)s1,"inconclusive: 39.8 µM [inhibitor, single point]",–
COc1cc2c(cc1OC)C(c1cccs1)N(C(=S)NC(C)C)CC2 (centres undefined),inactive,–
C=CCN(c1ccc(C(=O)Nc2cccc([N+](=O)[O-])c2)cc1)S(C)(=O)=O,inactive,–
C=CCOC(=O)C(C(=O)CC)C(NC(=O)OC)c1ccc(F)cc1 (centres undefined),–,inactive: 16.3% [at 13.5 µM]
COc1cccc(CNn2cnnc2)c1O,active: 12.6 µM,–
CC(Sc1nc2c([nH]c3ccccc32)c(=O)n1C)c1ccccc1 (centres undefined),inactive,–
COc1ccc(CNC(=O)CN(C(=O)c2cc3sccc3n2C)C2CCCC2)cc1,"inconclusive: 25.1 µM [inhibitor, single point]",–
Cc1cccnc1NC(=S)NCCc1ccccc1,"inconclusive: 20 µM [inhibitor, partial curve]",–
c1ccc2c(c1)nnn2Cc1nnc2sc(-c3ccc4c(c3)OCCO4)nn12,"inconclusive: 28.2 µM [inhibitor, partial curve]",–
O=C(CN1C(=O)c2ccccc2S1(=O)=O)NCCSCc1ccco1,"inconclusive: 39.8 µM [inhibitor, single point]",–
Cc1ccccc1-n1c(=O)cc(NCc2ccc3c(c2)OCO3)[nH]c1=O,active: 14.1 µM,–
CCc1cc(=O)oc2cc(C)c(CN3CCCC3)c(O)c12,"inconclusive: 20 µM [inhibitor, partial curve]",–
O=C(Cn1nnc(-c2cc(Cl)ccc2-n2cnnn2)n1)N1CCCc2ccccc21,"inconclusive: 39.8 µM [inhibitor, single point]",–
COc1cc(/C=N/NC(=O)c2cccc([N+](=O)[O-])c2)ccc1OCc1ccccc1,"inconclusive: 37.7 µM [inhibitor, single point]",–
COc1ccc(/C=C/CN2CCN(Cc3ccc(F)cc3)C(CCO)C2)cc1 (centres undefined),inactive,–
Cc1cc(NC(=O)CCCN2C(=O)c3cccnc3C2=O)no1,inactive,–

SMILES,Potency,"activity, negative = inhibition"
OCCNc1nc(-c2cccnc2)nc2ccccc12,active: 25.1 µM,–
COc1ccc(-c2cc(C(F)(F)F)nc(S(C)(=O)=O)n2)cc1,"inconclusive: 39.8 µM [inhibitor, single point]",–
Cn1c2ccccc2c2c(C(=O)N3CCN(c4ccccn4)CC3)cn(C3CCCC3)c(=O)c21,"inconclusive: 39.8 µM [inhibitor, single point]",–
CC(=O)N1CCC2(CCN(Cc3cc(C(F)(F)F)cc(C(F)(F)F)c3)CC2)CC1,inactive,–
CCCCS(=O)(=O)Nc1ccc2ncn(C)c(=O)c2c1,"inconclusive: 39.8 µM [inhibitor, single point]",–
NC(=O)c1c(NC(=O)c2ccco2)sc2c1CCC2,"inconclusive: 28.2 µM [inhibitor, single point]",–
COc1ccc(NC(=O)/C(=C\c2ccc(OS(=O)(=O)c3ccc(C)cc3)cc2)NC(=O)c2ccccc2)cc1,active: 1 µM,–
COc1ccccc1/C=N/NC(=O)C(=O)NCc1cccnc1,inactive,–
COC(=O)c1ccccc1NC=C1C(=O)OC2(CCCCC2)OC1=O,"inconclusive: 1.26 µM [inhibitor, partial curve]",–
CCCN1C(=O)c2cc(C(=O)Nc3ccc(OC)cc3OC)ccc2C1Nc1ccc(OC)cc1OC (centres undefined),active: 25.1 µM,–
CC(C)=C[C@H]1[C@@H](COC(=O)c2cc3c(cc2Cl)OCO3)C1(C)C,–,inactive: -2.34% [at 13.5 µM]
Cc1ccc(S(=O)(=O)Nc2cccc3ncccc23)s1,active: 12.6 µM,–
C/C=C\C1=C(CO)C(=O)[C@@H]2OC2C1=O (some centres undefined),active: 0.708 µM,–
CC(C)(C)C(=O)NC(=S)N1CCc2ccccc21,active: 11.2 µM,–
COc1cccc2c(=O)c3ccoc3n(C)c12,"inconclusive: 31.6 µM [inhibitor, partial curve] and inconclusive: 28.2 µM [inhibitor, partial curve]",–
C/C=C(\C)C(=O)NNC(=O)c1sc(-c2ccccc2)nc1C,inactive,–
N/C(=N/O)c1cccn1Cc1ccccc1[N+](=O)[O-],"inconclusive: 20 µM [inhibitor, partial curve]",–
N#Cc1nc(-c2ccc(Cl)cc2)oc1NCc1ccco1,"inconclusive: 28.2 µM [inhibitor, partial curve]",–
Cc1ccc(C)c(-n2c(C)cc(/C=N/NC(=O)c3c(C)nc4cc(C)ccn34)c2C)c1,active: 12.6 µM,–
C=CCOC(=O)C(=O)/C=C/c1c(C)n(C)n(-c2ccccc2)c1=O,"inconclusive: 35.5 µM [inhibitor, single point]",–
COc1ccc(-c2nc(C#N)c(NC(C)C)o2)cc1,"inconclusive: 28.2 µM [inhibitor, partial curve]",–
O=c1[nH]ncc(N2CCN(Cc3ccccc3)CC2)c1Cl,"inconclusive: 39.8 µM [inhibitor, single point]",–
Nc1c(C(=O)OCC2CCCO2)c2nc3ccccc3nc2n1C1CCCCC1 (centres undefined),"inconclusive: 25.1 µM [inhibitor, partial curve]",–
O=C(c1cc(N2C(=O)C3C4CCC(C4)C3C2=O)ccc1Cl)N1CCN(c2ccccc2F)CC1 (centres undefined),inactive,–
CCOc1ccccc1-n1c(SCC(N)=O)nnc1-c1ccco1,active: 25.1 µM,–

SMILES,Potency,"activity, negative = inhibition"
Cc1ccccc1NC(=O)c1cc(S(=O)(=O)N2CCCCC2)cs1,"inconclusive: 11.2 µM [inhibitor, partial curve]",–
CCCCn1c(=O)n(C)c(=O)c2c(C(F)(F)F)cc(-c3ccncc3)nc21,"inconclusive: 31.6 µM [inhibitor, single point]",–
CCCn1c(SCC(=O)N2CCc3ccccc32)nnc1-c1ccco1,"inconclusive: 25.1 µM [inhibitor, single point]",–
C=CCn1c(SC(CCO)C(=O)NCc2ccco2)nc2sc3c(c2c1=O)CCC3 (centres undefined),"inconclusive: 39.8 µM [inhibitor, single point]",–
O=C(Nc1ccc(F)cc1)Oc1ccccc1N1CCOCC1,"inconclusive: 39.8 µM [inhibitor, single point]",–
COc1cc(/C=N/NC(=O)c2cccc(S(=O)(=O)N3CCCCC3)c2)cc(Br)c1O,"inconclusive: 15.8 µM [inhibitor, partial curve]",–
C=COCCn1c(=N)n(CCC)c2ccccc21,"inconclusive: 25.1 µM [inhibitor, partial curve]",–
O=C1c2ccccc2C(O)(Cc2ccccc2)N1Cc1ccco1 (centres undefined),"inconclusive: 39.8 µM [inhibitor, single point]",–
COc1cc2c(cc1NC(=O)CN(C)Cc1ccc(OC)c(OC)c1)oc1ccccc12,"inconclusive: 35.5 µM [inhibitor, single point]",–
CCc1cc(=O)oc2cc(OCC(=O)N3CCc4ccccc43)ccc12,"inconclusive: 31.6 µM [inhibitor, partial curve]",–
CCc1c(C(=O)Nc2ccccc2)c(C)[nH]c(=S)c1C#N,active: 3.55 µM,–
CCCC(=O)C1=C(c2ccccc2)C(C#N)(C#N)C(C#N)=C1N,"inconclusive: 35.5 µM [inhibitor, single point]",–
CCc1nc2sc3ccccc3c(=O)c2c(=O)n1CCOC,"inconclusive: 39.8 µM [inhibitor, single point]",–
CSc1nnc(-c2nnc(SC)n2-c2ccccc2)n1-c1ccccc1,"inconclusive: 14.1 µM [inhibitor, partial curve]",–
O=C(Nc1nc2ccc3ccccc3c2s1)c1ccc(N2CCCCC2)c([N+](=O)[O-])c1,inactive,–
COc1cc(/C=C2/SC(=S)N(CC(=O)Nc3nc4ccccc4s3)C2=O)cc(OC)c1OC,inactive,–
CC1CN(c2ccccc2)C(=O)CS1 (centres undefined),active: 15 µM,–
COc1ccccc1CN(CC(=O)NCc1ccco1)C(=O)CNS(=O)(=O)c1ccc(C)cc1,active: 22.4 µM,–
Cc1sc2nc(CSc3ccccc3)nc(N3CCC(C(N)=O)CC3)c2c1C,inactive,–
NNC(=O)CCn1c2ccccc2c2ccccc21,inactive,–
COc1cccc(-n2cnc3sc(C)cc3c2=O)c1,inactive,–
O=C(NCCn1ccc2ccccc21)c1cccc([N+](=O)[O-])c1,inactive,–
Cc1cccc(NC(=S)Nc2ccccn2)c1C,"inconclusive: 39.8 µM [inhibitor, single point]",–
CN(C)c1ccc(C2OC(=O)C(C)(C)C(=O)C2(C)C)cc1 (centres undefined),inactive,–
